The values that follow come from PubChem BioAssay AID360 (National Center for Advancing Translational Sciences (NCATS), 2006).

The whole screen tested about 48,000 compounds, of which about 550 (1.1%) were called active. Another 4% or so got no clear call; they are omitted. No stated cut-off is given here; in the data, active means potency below about 15 µM; inconclusive means mostly about 16 µM to 33 µM; inactive means weaker than that. The list shows a part of the results. A value given as a limit tells only on which side of the number the result lay.
Potency means the concentration at half of the fitted maximal effect.

The target of the test is Lysosomal acid glucosylceramidase (Homo sapiens) (UniProt P04062). Kind of test: Glucocerebrosidase.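 Further: the screen sought inhibitors.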 The settings on record: purified enzyme, resorufin glucoside fluorescence (screen aimed at inhibitors), 20 min. A digest of the protocol: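 Compounds titrated against 0.2 nM normal enzyme, 30 uM resorufin beta-D-glucopyranoside substrate, citrate/phosphate buffer with taurocholate and tween-20, pH 5.9. Reaction ran 20 min at room temperature; fluorescence (Ex 548/Em 600) gave AC50.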
Sequence of UniProt P04062 (P04062 whole entry, looked up): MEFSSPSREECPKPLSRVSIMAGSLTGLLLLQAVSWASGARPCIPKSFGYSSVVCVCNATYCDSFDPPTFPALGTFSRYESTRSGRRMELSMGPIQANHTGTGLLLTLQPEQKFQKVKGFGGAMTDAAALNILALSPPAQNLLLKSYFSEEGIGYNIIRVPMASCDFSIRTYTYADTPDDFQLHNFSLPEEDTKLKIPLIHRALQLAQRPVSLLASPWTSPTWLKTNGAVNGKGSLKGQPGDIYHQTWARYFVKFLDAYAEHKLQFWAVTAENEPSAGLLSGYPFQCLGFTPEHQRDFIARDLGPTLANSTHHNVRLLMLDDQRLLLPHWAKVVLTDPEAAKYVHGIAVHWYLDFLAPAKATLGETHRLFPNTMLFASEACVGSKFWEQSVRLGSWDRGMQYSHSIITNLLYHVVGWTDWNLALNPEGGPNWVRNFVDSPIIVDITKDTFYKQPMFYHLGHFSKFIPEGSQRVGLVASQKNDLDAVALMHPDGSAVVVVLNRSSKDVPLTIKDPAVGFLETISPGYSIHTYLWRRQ
Turning to `Cc1nc2cccc(C(=O)NC3CCCCC3)c2o1`, the Potency is inactive: > 76.9 µM. As to `Cc1n[nH]c(C)c1S(=O)(=O)N1CCOCC1`, the Potency was inactive: > 76.9 µM. For the molecule `Cc1cccc(-n2c(Cc3ccccc3)nnc2SCC(=O)N2CCOCC2)c1`, the Potency was inactive: > 76.9 µM.

For the molecule `O=C(Nc1ccc(Br)cc1F)c1sccc1-n1cccc1`, the Potency is inactive: > 76.9 µM. Turning to `CCOC(=O)CCCn1nc(C)n2c(cc3sccc32)c1=O`, the Potency was inactive: > 76.9 µM. On to `c1ccc(-n2ncc3c(NCc4ccco4)ncnc32)cc1`, for which the Potency was inactive: > 76.9 µM. Next, `O=C(c1cnc2sccn2c1=O)N1CCc2ccccc2C1`: inactive: > 76.9 µM; `CN1CCN(CCNC(=O)Nc2ccccc2C(F)(F)F)CC1`: inactive: > 76.9 µM. Consider `COc1ccc(S(=O)(=O)NC2CCCC2)cc1Br`, for which the Potency is inactive: > 76.9 µM. For `CCNc1ccc(C(=O)OCC)cc1NC(=O)c1cccc(N(C)C)c1`, the Potency is inactive: > 76.9 µM. Take `O=C(CCc1nc(-c2ccccc2)no1)NCC1CCCO1` (stereo not given): the Potency was inactive: > 76.9 µM. For the molecule `Cc1cccc(C)c1OCC(=O)NCc1nnc(SCC(=O)NC2CCCCC2)n1C`, the Potency is inactive: > 76.9 µM. With `CC(=O)c1ccccc1OCC(O)CN1CCN(C(c2ccccc2)c2ccccc2)CC1` (stereo not given), the Potency is inactive: > 76.9 µM. For `COc1cc(CNc2ccc3[nH]c(=O)[nH]c3c2)cc(Cl)c1OCC(=O)NC(C)(C)C`, the Potency is inactive: > 76.9 µM. With `CCCCn1nnc(NC(=O)c2cc3ccccc3o2)n1`, the Potency is inactive: > 76.9 µM.

In the case of `COc1ccc(N(C(=O)Cn2nnc3ccccc32)C(C(=O)NCc2ccco2)c2cccnc2)cc1` (stereo not given), the Potency is inactive: > 76.9 µM. For the molecule `CCn1c(COc2ccccc2C)nnc1SCC(=O)N1CCC(C)CC1`, the Potency was inactive: > 76.9 µM. For the molecule `O=C(CCS(=O)(=O)c1cccc2nsnc12)N1CCN(C(=O)c2ccco2)CC1`, the Potency was inactive: > 76.9 µM.

For the molecule `Cc1oc(-c2ccccc2Cl)nc1CSCC(=O)N1CCCC1`, the Potency is inactive: > 76.9 µM. As for `CCCc1nc(NCc2ccncc2)c2nnn(Cc3ccccc3F)c2n1`, the Potency is inactive: > 76.9 µM.

With `CCc1nnc(NC(=O)CSc2nnc(-c3ccco3)n2C)s1`, the Potency was inactive: > 76.9 µM. Consider `CCN1/C(=C(\O)c2ccccc2)C(=O)c2ccccc2S1(=O)=O`, for which the Potency is inactive: > 76.9 µM.

Take `COc1cc(/C=c2\s/c(=C(/C#N)C(=O)N3CCCC3)n(-c3ccccc3)c2=O)ccc1O`: the Potency was inactive: > 76.9 µM. Consider `CS(=O)(=O)N1CCN(C(=O)c2cc(-c3cccs3)nc3ccccc23)CC1`, for which the Potency is inactive: > 76.9 µM. Consider `O=S(=O)(Nc1nc2ccccc2[nH]1)c1ccc(Cl)cc1`, for which the Potency is inactive: > 76.9 µM. Next, `CC(=O)c1cccc(NC(=O)NCCS(C)=O)c1` (stereo not given): inactive: > 76.9 µM; `CC(=O)Nc1cnc(NC(=O)c2cccc(F)c2)cc1C`: inactive: > 76.9 µM. `CCN1CCN(C(c2ccc(F)cc2)c2nnnn2Cc2cccs2)CC1` (stereo not given): the Potency was inactive: > 76.9 µM. Regarding `CCCCCCc1nc2ccccc2c(=O)n1N`, the Potency was inactive: > 76.9 µM. For the molecule `CC(C)(C)NC(=O)CN1CCC(O)(c2ccccc2)CC1`, the Potency was inactive: > 76.9 µM.

As to `CC1CN(c2c3c(nc4ncnn24)CCCC3)CC(C)O1` (stereo not given), the Potency is inactive: > 76.9 µM. Turning to `CCC(C)(C(=O)NC1CCCCC1)N(C(=O)c1cnccn1)c1c(C)n(C)n(-c2ccccc2)c1=O` (stereo not given), the Potency is inactive: > 76.9 µM. For the molecule `COc1cc(NC(=O)N2CCOCC2)cc(OC)c1`, the Potency was inactive: > 76.9 µM. Then `CCOC(=O)c1[nH]c(C)c(C)c1C`, with inactive: > 76.9 µM; and `Cn1c(SCC(=O)N2CCN(c3ccccc3)CC2)nnc1-c1cc2ccccc2o1`, with inactive: > 76.9 µM; and `CCOC(=O)N1CCN(C(=O)C2CCCN(S(C)(=O)=O)C2)CC1` (stereo not given), with inactive: > 76.9 µM. Take `COC(=O)c1ccccc1NC(=O)Nc1cnccn1`: the Potency was inactive: > 76.9 µM. For `CCc1c(C(=O)Nc2ccc(OC)cc2)[nH]c(C)c1C(C)=O`, the Potency is inactive: > 76.9 µM.

Turning to `O=C(CN(CC(=O)N1CCOCC1)S(=O)(=O)c1ccc(Br)s1)N1CCOCC1`, the Potency is inactive: > 76.9 µM. Take `CCOC(=O)c1sc(NC(=O)CSc2ncn(-c3ccccc3)n2)nc1C`: the Potency was inactive: > 76.9 µM. With `COC(=O)c1c(C)[nH]c(C)c1-c1ccccc1`, the Potency is inactive: > 76.9 µM. As for `COc1ccc(OC)c(-c2[nH]nc3c2C(c2ccco2)C(C#N)=C(N)O3)c1` (stereo not given), the Potency was inactive: > 76.9 µM. For the molecule `COc1ccc(OC)c(S(=O)(=O)N(C)CC(=O)Nc2ccc3c(c2)OCCO3)c1`, the Potency was inactive: > 76.9 µM. Then `CC(=O)Nc1ccc(N/C=C/C(=O)c2ccco2)cc1`, with inactive: > 76.9 µM; and `COCCN(C(=O)CCC(=O)Nc1ccccn1)C(C(=O)NCCC(C)C)c1ccc(OC)cc1` (stereo not given), with inactive: > 76.9 µM; and `Cc1onc(-c2c(Cl)cccc2Cl)c1C(=O)Nn1cnnc1`, with inactive: > 76.9 µM.

Take `COc1ccc(Cl)cc1N1C(=O)C2CCCN2C1c1sccc1C` (stereo not given): the Potency was inactive: > 76.9 µM. Next, `COc1ccc(N(CC(=O)NC2CCCC2)C(=O)c2ccc(N3CCCCC3)nc2)cc1`: inactive: > 76.9 µM; `OC(COCc1ccccc1)CN1CCN(c2ccccc2)CC1` (stereo not given): inactive: > 76.9 µM; `COc1cccc(N=C2SC(C(=O)Nc3ccccc3F)CC(=O)N2C)c1` (stereo not given): inactive: > 76.9 µM. In the case of `CCOC(=O)c1[nH]c2ccc(C)cc2c1N=C(C)N(C)C`, the Potency is inactive: > 76.9 µM. On to `CN1C(=O)N(S(=O)(=O)c2ccc(F)c(F)c2F)C(=O)C1(C)C`, for which the Potency is inactive: > 76.9 µM. Consider `COc1ccc(NC(=O)c2ccccc2Cl)cc1NC(=O)CN1CCOCC1`, for which the Potency is inactive: > 76.9 µM. Take `CCN1CCN(c2nc3c(c(=O)[nH]c(=O)n3C)n2CCCSc2ncccn2)CC1`: the Potency was inactive: > 76.9 µM.

As for `Cn1c(=O)cc(OCC(=O)NCc2cccnc2)c2ccccc21`, the Potency was inactive: > 76.9 µM. For `Cc1occc1C(=O)Nc1cccnc1`, the Potency was inactive: > 76.9 µM.

Take `CCOC(=O)c1ccc(CNC(=O)c2cc(C(C)(C)C)oc2C)o1`: the Potency is inactive: > 76.9 µM. `CC(C)CCSc1nc2c(c(=O)[nH]c(=O)n2C)n1CCc1ccccc1`: the Potency was inactive: > 76.9 µM. Then `CCCS(=O)(=O)N1CCCC(C(=O)NCCN2CCC(Cc3ccccc3)CC2)C1` (stereo not given), with inactive: > 76.9 µM; and `CC(=O)NC(Cc1ccccc1)C(=O)N1CCN(C(=O)c2cccs2)CC1` (stereo not given), with inactive: > 76.9 µM; and `Cc1ccc(C(=O)CC(C(=O)O)n2ccc(C)n2)cc1` (stereo not given), with inactive: > 76.9 µM.

On to `C=C(C)CSc1nc(C)c(Cc2ccccc2)c(=O)[nH]1`, for which the Potency is inactive: > 76.9 µM. Next, `O=C(Cn1c(SCC(=O)NC2CCCC2)nnc1-c1ccncc1)Nc1ccc2c(c1)OCO2`: inactive: > 76.9 µM.

For the molecule `CCN(CC)S(=O)(=O)c1cccc(C(=O)N2CC(O)CC2C(=O)O)c1` (stereo not given), the Potency was inactive: > 76.9 µM. Take `COc1ccc(OC)c(C2N(c3cc(C)on3)C(=O)C3CCCN32)c1` (stereo not given): the Potency is inactive: > 76.9 µM. With `Cn1c(=O)c2c(ncn2CC(=O)OCC(=O)NC2CCCc3ccccc32)n(C)c1=O` (stereo not given), the Potency is inactive: > 76.9 µM. Next, `CCOC(=O)c1cnc(C(C)(C)C)[nH]c1=O`: inactive: > 76.9 µM; `CC1Cc2cc(-c3csc(NC(=O)Cc4cccs4)n3)ccc2N1S(C)(=O)=O` (stereo not given): inactive: > 76.9 µM; `Cc1ccc(C)c(Cc2c(C)nc3c(C(=O)N4CCOCC4)cnn3c2C)c1`: inactive: > 76.9 µM. Next, `Cc1c(-c2ccccc2)sc(N)c1C(=O)N1CCOCC1`: inactive: > 76.9 µM; `O=C(CCCc1c[nH]c2ccccc12)N1CCOCC1`: inactive: > 76.9 µM. For `Cc1c(NC(=O)C2CCCN2S(=O)(=O)c2ccc(Cl)cc2)c(=O)n(-c2ccccc2)n1C` (stereo not given), the Potency is inactive: > 76.9 µM.

Turning to `Cc1ccc(S(=O)(=O)N2CCCC2C(=O)NC2CCCCC2)cc1` (stereo not given), the Potency is inactive: > 76.9 µM. Turning to `CC(=O)N1CCc2cc(NS(=O)(=O)c3cccs3)ccc21`, the Potency is inactive: > 76.9 µM. On to `COc1ccc2[nH]cc(C(=O)CN3CCN(C/C=C/c4ccccc4)CC3)c2c1`, for which the Potency is inactive: > 76.9 µM. In the case of `Cc1nnc(N(C)C(=O)Cc2ccc3c(c2)OCO3)s1`, the Potency was inactive: > 76.9 µM. In the case of `Cc1csc(NC(=O)CCn2c(=O)sc3ccccc32)n1`, the Potency was inactive: > 76.9 µM. On to `COCCN(C(=O)CCCC(=O)Nc1ccccn1)C(C(=O)NC1CCCC1)c1ccc(C)cc1` (stereo not given), for which the Potency is inactive: > 76.9 µM.

As for `Cc1sc2nc(SCC(=O)NCc3ccco3)n(-c3ccccc3)c(=O)c2c1C`, the Potency is inactive: > 76.9 µM. `COc1cccc(C2(O)CCN(C(=O)C3CCC3)CC2)c1`: the Potency was inactive: > 76.9 µM. Consider `O=C(Nc1cccnc1)c1ccccc1Oc1ccccc1`, for which the Potency is inactive: > 76.9 µM. As to `CC(=O)C1=C(C)NC(=O)NC1c1cc(Br)ccc1OCC(N)=O` (stereo not given), the Potency was inactive: > 76.9 µM. Regarding `Cn1c2ccccc2c2cnn(CC(=O)N3CCN(c4ncccn4)CC3)c(=O)c21`, the Potency was inactive: > 76.9 µM. Regarding `CC1(C)CSC(=S)N1S(=O)(=O)c1ccccc1`, the Potency was inactive: > 76.9 µM. Turning to `CCC1Oc2ccccc2N(CC(=O)Nc2ccc(OC)cc2OC)C1=O` (stereo not given), the Potency is inactive: > 76.9 µM. In the case of `O=C(OCn1nnc2ccccc2c1=O)c1ccc2ccccc2n1`, the Potency was inactive: > 76.9 µM. Then `CCOC(=O)C1CCN(C(=O)c2ccc(SC)cc2OC)CC1`, with inactive: > 76.9 µM; and `Cc1cccn2c(=O)c3cc(C(=O)NCc4cccnc4)c(=N)n(C(C)C)c3nc12`, with inactive: > 76.9 µM; and `Cc1cc2ncn(N)c2cc1C`, with inactive: > 76.9 µM. Consider `Cn1c(=NC(=O)CSCC(=O)N2CCCC2)sc2ccccc21`, for which the Potency is inactive: > 76.9 µM.
